Among the data in the supplement of paper PMC10126150 are switch fluorescence ratio values, retold here.

Values marked as one replicate rest on one cluster of the flow cell; about a third of the high ones do not repeat.

For the series, the system named is ATP. The series is described as follows: switch fluorescence ratio, 500 uM ATP over buffer (Cy3 cluster intensity, sum of 5 cycles each) (fold (ratio)); higher = stronger signal-on switching upon ATP binding; sequences stand for … in TCGTCGGCAGCGTCAGATGTGTATAAGAGACAGTTTTTTTTTTTTTTTTTTTTTTTTT…TC. Particulars: aptamer strand: ATP DNA aptamer (quencher-CACCTGGGGGAGTATTGCGGAGGAAGG + anchor), 100 nM annealed; ATP concentration: 500 uM; one replicate. The procedure, abridged:
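The quencher-labelled ATP aptamer, at 100 nM, was annealed to Cy3-labelled switching-strand clusters on a modified Illumina MiSeq flow-cell. The clusters were imaged in selection buffer, then after 15 min with 500 uM ATP at 22 °C, and this buffer/ATP cycle ran five times with NaOH stripping and re-annealing between runs. Per-cluster fluorescence ratios, summed target-cycle over summed buffer-cycle Cy3 intensity, were averaged per switch-domain sequence. Clusters outside 100-1000 RFU were excluded.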
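Note: ATP exposure 15 min at 22 °C before imaging.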

Turning to GCCTTTAGTA, the switch fluorescence ratio worked out at 1.05.
To GGGGTAGGAA belongs 0.969; to GGTGGGGTT, 0.972.
For GACGGAAGTA, the switch fluorescence ratio is 1.02.
To CCAGATGGAT belongs 1.04.
The value for TTATATCCTT was 0.992; that for TTCTATTCGC was 1.06.
Take CAGGTGTGAG: the switch fluorescence ratio is 1.03.
For the sequence ATGTCGTGTT, the switch fluorescence ratio is 0.995.
The value for TTAAGCCAAG was 0.996; that for AAGACAGTCA was 1.04.
The value for CGTGGGCGTC was 1.03.
To ATCGTTTGG belongs 0.98.
In the case of CTCGCGGGGG, the switch fluorescence ratio turned out to be 1.02.
With ATTTCAGA, the switch fluorescence ratio came to 0.992.
TTCATGTGAG: the switch fluorescence ratio is 0.995.
The value for AGATAGCGCG was 1.03; that for AATACTCGGA was 1.05; that for TCCTTTGCAT was 3.11.
To GAAAGGAAGT belongs 1.01.
The value for AAGCACATTG was 1.08; that for GGCATACAAG was 0.972; that for TCCACACGTT was 0.967.
For the sequence GGGAGGGATC, the switch fluorescence ratio came out at 1.01.
To CCGCGTTATT belongs 2.34.
To GTGACCGGTC belongs 1.01.
To GGGGACCCTT belongs 1.02; to AGGATTTTCA, 0.977.
For GGCTTAAAAC, the switch fluorescence ratio amounted to 0.973.
The value for AAATCTCAGG was 0.975; that for TTATCGCGAG was 0.969; that for CCGTTTTGTA was 1.06.
The value for TCATTGTTTC was 1.
The value for CTAGTTTTAA was 0.988; that for ATTAGAGTT was 0.957; that for TAGTTTCTCA was 0.964.
As for GATCTAGCCG, the switch fluorescence ratio was determined as 0.992.
The value for ATGTCCGTGT was 0.993.
The value for GGCGAAGTAA was 1.07; that for GCGAGTTGCT was 1.02.
For the sequence ACATTCTTGA, the switch fluorescence ratio came out at 0.992.
The value for TGGTGTATCT was 0.999.
For CATACACCGA, the switch fluorescence ratio amounted to 1.09.
In the case of TCTCTACCTG, the switch fluorescence ratio is 1.03.
To GTAGGGATTG belongs 0.995; to AACCACAAT, 1.1.
To CTCAGTTTGG belongs 1.02; to GATATACGGA, 1.04; to GAAAAATGGG, 1.03.
To ACGGAAAGC belongs 1.18.
For CTGTGGGAGT, the switch fluorescence ratio is 1.02.
The value for AGTTAGTACC was 0.975.
The value for TTTGCGAACG was 1.05; that for AAAATATTAT was 1.02.
With GGACTAGTCT, the switch fluorescence ratio is 1.02.
Turning to TGGGTAGC, the switch fluorescence ratio turned out to be 0.954.
To ACATCTTTCG belongs 1; to AGGGGGGAT, 0.961; to GCCTATGACC, 0.999.
As to GCGTGACCGT, the switch fluorescence ratio was found to be 1.01.
The value for TCCGAAGGAG was 0.972; that for GTCCTAAAGC was 1.07; that for CGGCAGCGTC was 1.04.
To ACGGACACTA belongs 1.2.
The value for GCGCGCGAAA was 1.03.
ACAATGGTTT: the switch fluorescence ratio worked out at 0.964.
GATCAGCCTA: the switch fluorescence ratio was 0.959.
ATTATCATCG: the switch fluorescence ratio worked out at 1.01.
To AATTTATCGA belongs 1.02.
The value for AGTATGGTCG was 0.925; that for ATCGGAGATG was 0.946.
As for CGACAGCTGG, the switch fluorescence ratio stood at 1.04.
The value for CGTTCTGATA was 0.978.
The value for CTAAGTAGGC was 0.991.
To TTACGAGTGC belongs 1.01; to AGGTACCCCT, 1.
For the sequence TCCGAGAAT, the switch fluorescence ratio amounted to 0.997.
To ACAGAATAGA belongs 1.01; to GGGATAAATT, 0.986.
In the case of AACCTATACG, the switch fluorescence ratio was 1.09.
To TCTTAATGAG belongs 1.01; to AAATACTAC, 1.33.
To GGTTGCGGGC belongs 1.03; to GACTGTCTAA, 0.984.
On to CTTCAGTTTG, for which the switch fluorescence ratio amounted to 1.04.
The value for CTCTTAGATA was 0.956; that for ATAAGTGGGT was 1.04.
The value for AAAGCGAAAT was 0.977.
To ACAATCTTGA belongs 0.973; to TTGCGGTTAA, 1.57; to ACGTTATCTA, 1.14.
For the sequence CCTAAGTCGC, the switch fluorescence ratio was found to be 1.11.
To TTAATGGGTC belongs 0.97; to CCGGGTTG, 1.07.
To GTATGAG belongs 0.983.
To GAGGAGGCCT belongs 0.941.
TCCAACTGTA: the switch fluorescence ratio was 1.08.
On to GTAATATGAG, for which the switch fluorescence ratio came out at 1.07.
To GTGCCCGGCT belongs 0.992; to AAAGGGAGAC, 0.991.
The value for CTATTATACC was 1.04; that for ATACGTATTT was 1.15; that for ATCTAGTCAA was 1.08.
With GGGATGAGAT, the switch fluorescence ratio turned out to be 0.988.
As to TGAAAGCACC, the switch fluorescence ratio was determined as 1.12.
The value for TTGGGAGTAT was 0.977; that for CCGGCGTCGT was 1.04.
To TTCAAGCAG belongs 1.02.
To CCTATCATGG belongs 1.
Regarding CACCCGACT, the switch fluorescence ratio is 1.06.
To TATGACTGGA belongs 1.
Turning to TTTGCCCGTT, the switch fluorescence ratio was 0.978.
As for ACTGTCGTAT, the switch fluorescence ratio stood at 1.02.
On to CCGAGGGTGT, for which the switch fluorescence ratio is 1.05.
With TGACAAAGTA, the switch fluorescence ratio turned out to be 0.987.
To TACGTCGATG belongs 1.01.
The value for GCTCGAGATG was 0.998; that for TGGAGTTCT was 0.997.
The value for TTATAGGGTC was 0.999; that for GCACACAGGG was 1.16.
